Values joined by “and” are separate entries in the source; they are usually repeats but may differ in a detail not shown here. Equal entries are not always repeated. Among all 110,000 compounds or so, about 230 (0.21%) showed an effect of 50% or more. The list shows a part of the results.
biological target: DPAP1 (Plasmodium falciparum, UniProt Q8IIJ9); assay: primary screen, percent inhibition; read by cleavage of a fluorogenic dipeptide substrate; higher = more effect of the substance; parameters: species or system P. falciparum D10 trophozoite lysates; single well
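Further: 30 min substrate incubation versus DMSO and 10 µM JCP410 controls.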

Chain of DPAP1 (Q8IIJ9 whole entry, looked up): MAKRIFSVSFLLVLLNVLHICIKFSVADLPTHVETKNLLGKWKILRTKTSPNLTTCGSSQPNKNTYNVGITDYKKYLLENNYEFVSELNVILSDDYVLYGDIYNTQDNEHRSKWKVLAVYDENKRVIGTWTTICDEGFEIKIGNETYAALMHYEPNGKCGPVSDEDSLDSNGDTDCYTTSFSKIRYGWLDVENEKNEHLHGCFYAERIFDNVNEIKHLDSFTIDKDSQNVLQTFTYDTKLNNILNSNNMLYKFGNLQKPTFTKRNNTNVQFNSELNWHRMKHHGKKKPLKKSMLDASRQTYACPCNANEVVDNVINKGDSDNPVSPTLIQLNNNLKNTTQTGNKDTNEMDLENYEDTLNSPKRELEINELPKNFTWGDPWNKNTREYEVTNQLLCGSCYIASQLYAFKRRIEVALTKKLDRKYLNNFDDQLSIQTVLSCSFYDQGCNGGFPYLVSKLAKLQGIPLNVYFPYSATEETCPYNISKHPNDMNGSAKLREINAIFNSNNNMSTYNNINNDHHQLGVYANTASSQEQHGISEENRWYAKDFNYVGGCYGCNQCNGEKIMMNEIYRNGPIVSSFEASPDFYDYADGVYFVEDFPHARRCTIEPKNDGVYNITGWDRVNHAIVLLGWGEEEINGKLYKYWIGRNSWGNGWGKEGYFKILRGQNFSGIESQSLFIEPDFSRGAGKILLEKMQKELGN

In order of falling “% Inhibition @ 10 uM” value:
1. O=S(=O)(Cc1ccc(F)cc1)N1CCC(c2nc(O)c3nnn(Cc4ccccc4)c3n2)CC1  6.85%
2. CC(C)(C)c1ccc(C(=O)NCc2nc(-c3ccc(Cl)cc3)no2)cc1  6.78%
3. CCOc1ccccc1NC(=O)C1C(C(=O)O)C2C=CC1C21CC1 (stereo not drawn)  6.74%
4. Cc1ccc(C(=O)Nc2ccc(C)c(Cl)c2)o1  5.69%
5. Cc1ccc(CNC(=O)CN2CC(c3ccccc3)CC2=O)cc1 (stereo not drawn)  5.1%
6. CC(C)C[C@H](NC(=O)c1ccc2cc[nH]c2c1)C(=O)NCC#N  5.05%
7. COCCCNC(=O)Cn1ncn2c(cc3sccc32)c1=O  4.95%
8. CCOc1cc(C=O)ccc1OCc1c(F)cccc1Cl  4.86%
9. COc1ccccc1C1CC(=O)NC(C)=C1C(=O)OCC1CCCO1 (stereo not drawn)  4.78%
10. CC(=O)/N=C1\SC2CS(=O)(=O)CC2N1Cc1ccccc1Cl (stereo not drawn)  3.81%
11. CC1(C)CC2=Nc3ccccc3N(C(=O)Cc3ccccc3)C(c3ccc(F)cc3)C2=C(O)C1 (stereo not drawn)  3.61%
12. COc1cc(OC)c(C2C3=C(O)CCCC3=Nc3nc4ccccc4n32)cc1OC (stereo not drawn)  3.32%
13. Cc1ccc(C(=O)O)cc1-c1ccc(/C=C2/NC(=O)NC2=O)o1  3.15%
14. Cc1cc2c(cc1/C=C1\SC(Nc3ccccc3F)=NC1=O)OCO2  2.95%
15. COc1cc(C(=O)O)c(-n2c(C)ccc2C)cc1OC  2.94%
16. O=[N+]([O-])c1ccc(-c2cn3ccccc3n2)cc1  2.76%
17. CC(C)(C)c1[nH]nc2c1C(c1ccc(Br)cc1)C(C#N)=C(N)O2 (stereo not drawn)  2.69%
18. CCCNC(=O)Cn1c(=O)cc(C)c2c(C)nn(-c3cccc(Cl)c3C)c21  2.65%
19. O=C(O)C1CSC(c2cccc(Br)c2)N1 (stereo not drawn)  2.47%
20. COc1ccc(S(=O)(=O)c2nnn3c2nc(O)c2ccccc23)cc1  2.33%
21. Cc1ccc(C(=O)O/N=C(\N)c2ccncc2)cc1  2.17%
22. CN(CC(=O)NCc1ccc(C(=O)O)cc1)S(=O)(=O)c1cccc2nsnc12  2%
23. CCOC(=O)c1c(NC(=O)CN2CCCC2)sc(C(C)=O)c1C  1.84%
24. O=C(Nc1ccc2oc(-c3cccc(F)c3)nc2c1)c1cccs1  1.8%
25. O=C1c2ccccc2N(Cc2ccc(Cl)cc2)C2=NCCN12  1.72%
26. FC(F)(F)c1cccc(CN2CCN(c3ccc(Cl)cc3)CC2)c1  1.63%
27. CCOCCCNC(=O)C1=C(C)C(=O)OC12CCCCC2  1.55%
28. Clc1ccc(OCCCCCCN2CCCC2)c(Cl)c1  1.43%
29. CC1=C(C(=O)OCc2ccccc2)C(c2ccccc2C(F)(F)F)CC(=O)N1 (stereo not drawn)  1.37%
30. COc1ccc(S(=O)(=O)N(CC(=O)N2CCN(c3ccccc3F)CC2)Cc2ccccc2)cc1  1.27%
31. O=c1nc2s/c(=C/c3cccs3)c(=O)n2nc1Cc1ccc(F)cc1  1.23%
32. Cc1ccc(Cn2ccn(CC(N)=O)c(=O)c2=O)cc1  0.943%
33. CC(=O)c1cc2c(cc1NC(=O)CC(C)C)OCO2  0.907%
34. COCC(=O)n1nc(-c2ccccc2)nc1NCc1ccco1  0.628%
35. CC1=Nc2ncnn2C(c2ccccn2)/C1=C(\O)OC(C)C (stereo not drawn)  0.565%
36. CC(=O)N1N=C(c2ccccc2)CC1c1ccc(C)cc1 (stereo not drawn)  0.528%
37. CC1CCN(CCCNC(=O)C2CCCN(S(C)(=O)=O)C2)CC1 (stereo not drawn)  0.514%
38. Cc1ccc(Cn2cc(/C=C3\SC(=O)N(C)C3=O)c3ccccc32)cc1  0.484%
39. COc1ccc(/C=C/c2sc(C)c(-c3ccccc3)[n+]2CCCS(=O)(=O)O)c(OC)c1  0.413%
40. Cc1ccc(CNC(=O)c2cc3c(-c4ccccc4F)nn(C)c3s2)cc1  0.317%
41. CC(=O)NS(=O)(=O)c1cccnc1Nc1ccc(Cl)c(Cl)c1  0.245%
42. C=Cc1ccc(CSc2nc3cccnc3[nH]2)cc1  0.174%
43. CCOC(=O)C1CCN(C2CCN(CC)CC2)CC1  0.162%
44. CC1=C(C(=O)Nc2ccc(F)cc2F)C(c2ccc3c(c2)OCO3)C2=C(O)CC(C)(C)CC2=N1 (stereo not drawn)  0.121%
45. CC(C)NC(=O)C(C#N)=C(SCc1ccccc1)SCc1ccccc1  0.0592%
46. Cc1cc(NCc2ccco2)nc2ccccc12  -0.233%
47. CCOC(=O)C1CCCN(C/C=C/c2ccccc2)C1 (stereo not drawn)  -0.262%
48. Cn1ccnc1C(O)c1cccc2ccccc12 (stereo not drawn)  -0.436%
49. O=S(=O)(Nc1nc2c(Cl)cccc2s1)c1ccccc1  -0.446%
50. CC(C)(C)Oc1ncc(-c2ccncc2)c(OC(C)(C)C)n1  -0.46%
51. Cc1ccccc1Cn1c(CN2CCC(C)CC2)nc2c1c(=O)n(C)c(=O)n2C  -0.499%
52. O=C(Nc1cc(C(F)(F)F)ccc1Cl)[C@@H]1C2C=CC(C2)[C@@H]1C(=O)O (stereo partly drawn)  -0.902%
53. CC1(C)CC(=O)C2=C(C1)NC(=O)CC2c1cccc2ccccc12 (stereo not drawn)  -1%
54. CN1C(=O)CC(C(=O)Nc2ccccc2F)S/C1=N\c1ccc(Cl)cc1 (stereo not drawn)  -1.02%
55. Cc1cc(C)c(NC(=O)Cn2cnc3ccccc3c2=O)c(C)c1  -1.28%
56. O=S(=O)(Nc1nc2ccccc2nc1NCc1ccccc1)c1ccccc1  -1.45%
57. C=CCn1c(SCCCCCC)nc(O)cc1=O  -1.62%
58. Cc1ccc(C2CC(=O)NC(SCC(N)=O)=C2C#N)o1 (stereo not drawn)  -1.64%
59. O=C(NCCc1ccccc1)c1nc(Cn2c(C(F)(F)F)nc3ccccc32)no1  -1.85%
60. COc1ccc(C(=O)CSc2ncnc3sc(C)c(C)c23)cc1  -1.93%
61. CC(O)(c1ccc(F)cc1)C(c1ccccc1)N1CCOCC1 (stereo not drawn)  -1.96%
62. O=C(Nc1sc2c(c1C(=O)Nc1ccccc1)CCC2)c1ccccc1  -1.96%
63. Cc1ccc(Cc2c(O)n3c(nc2=O)SCCC3)cc1  -2.19%
64. CCCCn1c(=N)n(CCCOc2ccccc2)c2ccccc21  -2.21%
65. NC(=O)C1(N2CCCCC2)CCN(C(=O)NC2CCCCC2)CC1  -2.28%
66. CCOc1ccc(CC(=O)Nc2ccc(C)c(C)c2)cc1OCC  -2.28%
67. CCCN(CCO)Cc1ccccc1F  -2.34%
68. Cc1cc(C)n2nc(CCCCc3nc4nc(C)cc(C)n4n3)nc2n1  -2.37%
69. O=C(Cn1ccc2ccccc2c1=O)NCCC(=O)N1CCC(N2CCCCC2)CC1  -2.4%
70. CO/N=C/c1ccc(OCc2c(C)c(C)c(Br)c(C)c2C)c(OC)c1  -2.42%
71. O=[N+]([O-])c1cccc(C2=NOc3cc(Cl)ccc3N2)c1  -2.63%
72. Cc1nn(CC(=O)NCc2ccc3c(c2)OCO3)c(C)c1Cl  -2.79%
73. CN1CCC(C2(O)c3ccccc3CCc3ccccc32)CC1  -2.79%
74. O=C(O)c1ccc(NC(=O)c2ccc(C(F)(F)F)cc2)cc1  -3.04%
75. Cc1ccc(C23CC4CC(CC(C(=O)NCC(=O)O)(C4)C2)C3)cc1  -3.06%
76. Cc1ccccc1Cn1cc(CCC(=O)N2CCOCC2)c2ccccc21  -3.15%
77. COC(=O)c1cc2sc(Cl)cc2[nH]1  -3.34%
78. CCC1=C(c2ccc(C)cc2)S(=O)(=O)N=C1N1CCC(C(=O)N2CCC3(CC2)OCCO3)CC1  -3.41%
79. Cc1cc(C)c(S(N)(=O)=O)cc1S(N)(=O)=O  -3.55%
80. Clc1ccccc1CN1CCN(c2ccccc2Cl)CC1  -3.56%
81. Cc1cc(C)c(C)c(OCC(=O)N2CCN(c3ccccc3F)CC2)c1  -3.77%
82. CC(=O)N1CCc2c([nH]c3ccccc23)C1c1cccc(F)c1 (stereo not drawn)  -3.8%
83. CC(CCc1ccccc1)N1CCN(c2ccccc2F)CC1 (stereo not drawn)  -4.14%
84. CCCCNS(=O)(=O)c1ccc(NC(=O)Cc2ccc(C)cc2)cc1  -4.71%
85. Cc1ccc(N(CC(=O)N2CCCC2)S(C)(=O)=O)cc1Cl  -4.72%
86. CCN(CC)CCCOc1cc(Cl)ccc1Cl  -4.8%
87. CC1(C)CC(=O)c2cc(C#N)c(SCc3ccccc3)nc2C1  -4.93%
88. CN1CCOC(c2ccccc2)(C(O)(c2ccccc2)c2ccccc2)C1=O (stereo not drawn)  -5.1%
89. Cc1nc2ccccc2c2oc(C(=O)NC3CCN(Cc4ccccc4)CC3)cc12  -5.25%
90. O=C(c1cc2nc(-c3cccs3)cc(C(F)(F)F)n2n1)N1CCN(c2ccccc2)CC1  -5.28%
91. CC(C)CN(CCNS(=O)(=O)c1csc(C(N)=O)c1)CC(C)C  -5.31%
92. Cc1ccc(C(=O)N(Cc2ccccc2)C(C)C)cc1[N+](=O)[O-]  -5.32%
93. CCN(CC)S(=O)(=O)c1nnc(NC(=O)COc2ccc(F)cc2)s1  -5.37%
94. O=C(C1CC1)N1CCN(C(c2ccccc2)c2ccccc2)CC1  -5.59%
95. COc1ccc2c(O)c(-c3c(C)cc(C)cc3C)c(O)nc2c1  -5.92%
96. CC(C(=O)NCc1ccc(F)cc1)n1ncn2cccc2c1=O (stereo not drawn)  -5.97%
97. CCCOc1ccc(C2c3c(oc4ccccc4c3=O)C(=O)N2c2nccs2)cc1 (stereo not drawn)  -6.23%
98. Cc1ccc(S(=O)Cc2ccc(C(=O)NCCc3cccs3)o2)cc1 (stereo not drawn)  -6.36%
99. Oc1cc(-c2ccccc2)nc2nc3ccccc3n12  -7.15%
100. Cc1nc(CN2CCN(C(=O)c3ccc(Br)cc3)CC2)cs1  -7.5%
101. O=C1N/C(=C/c2ccc(O)cc2)C(=O)N1c1ccc(Cl)cc1  -17.7%

`O=c1/c(=C/c2cccc(C(F)(F)F)c2)sc2nc3ccccc3n12` was tested, and the “% Inhibition @ 10 uM” value was -2.54% and -0.357%.
